# Laboratory results as given in PubChem BioAssay AID488969 (Vanderbilt High Throughput Screening Facility, 2010).
# Over roughly 110,000 compounds, “z-score” has its median near -0.1; the highest 2% begin near 2. Some of the results follow. The source made the active and inactive calls.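 The calls were made as follows: active = z-score in the third read window above 3 or below -3; inactive = the rest.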
# Target: Metabotropic glutamate receptor 8 (Rattus norvegicus) (UniProt P70579)
# Test: mGluR8 Gi/Go-coupled signaling modulation – cell-based, rat, thallium flux, HTS, primary screen (AID 488969)
# Conditions: HEK293 rat mGluR8, GIRK (G protein-gated inwardly rectifying potassium channel) thallium flux, FluoZin2; at 10 µM; stronger effect = higher value; submaximal glutamate (EC20) added with thallium
# UniProt P70579, sequence (P70579 whole entry, looked up): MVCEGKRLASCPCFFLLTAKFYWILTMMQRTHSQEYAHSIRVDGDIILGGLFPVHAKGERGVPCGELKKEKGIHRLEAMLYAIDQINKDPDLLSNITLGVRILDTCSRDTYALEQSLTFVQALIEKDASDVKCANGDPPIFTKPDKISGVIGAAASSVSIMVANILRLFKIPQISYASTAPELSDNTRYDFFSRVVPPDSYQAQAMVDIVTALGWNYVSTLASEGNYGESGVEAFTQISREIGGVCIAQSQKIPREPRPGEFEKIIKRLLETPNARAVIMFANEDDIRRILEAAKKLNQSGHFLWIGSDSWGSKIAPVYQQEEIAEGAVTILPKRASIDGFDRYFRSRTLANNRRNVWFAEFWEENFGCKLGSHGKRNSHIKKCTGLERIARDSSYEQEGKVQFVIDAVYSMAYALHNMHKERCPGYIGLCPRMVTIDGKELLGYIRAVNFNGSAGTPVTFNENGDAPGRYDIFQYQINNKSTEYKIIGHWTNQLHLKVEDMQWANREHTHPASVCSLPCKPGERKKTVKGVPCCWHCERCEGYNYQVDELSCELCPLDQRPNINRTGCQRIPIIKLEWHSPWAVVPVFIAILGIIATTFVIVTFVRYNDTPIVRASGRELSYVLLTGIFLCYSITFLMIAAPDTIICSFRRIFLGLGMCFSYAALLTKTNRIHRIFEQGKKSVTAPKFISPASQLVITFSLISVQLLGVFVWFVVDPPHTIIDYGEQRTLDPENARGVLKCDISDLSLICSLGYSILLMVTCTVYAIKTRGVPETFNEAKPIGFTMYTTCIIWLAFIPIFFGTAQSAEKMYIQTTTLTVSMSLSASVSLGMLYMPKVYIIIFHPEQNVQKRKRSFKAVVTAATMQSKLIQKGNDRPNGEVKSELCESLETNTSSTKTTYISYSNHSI
row,Structure (SMILES),z-score
1,O=C(Nc1nnc(C2CCCCC2)s1)c1ccco1,-0.0517
2,COc1ccccc1C(=O)Nc1cccc(-c2cn3ccsc3n2)c1,-0.847
3,CCOc1cc(CNC(C)C)c(Cl)cc1OCC(=O)NCCc1ccccc1,0.00454
4,O=C1CC(=O)N(CCc2ccccc2)C(=O)N1CCc1ccccc1,0.000149
5,NC(=O)c1ccc(Sc2nnc(-c3cccs3)n2CC2CCCO2)c([N+](=O)[O-])c1 (stereo not given),-0.212
6,Cn1c(=O)c2c(ncn2CC(=O)NCc2cccnc2)n(C)c1=O,0.0684
7,CS(=O)(=O)NCC(c1ccco1)N1CCN(c2ccc(F)cc2)CC1 (stereo not given),0.0131
8,CCn1nnnc1SCC(=O)Nc1ccc(OC)cc1,-0.115
9,COc1nc(Nc2ccc(OC)c(Cl)c2)nc(OC)n1,0.0549
10,O=C(NC1CCCCC1)C(c1ccco1)N(Cc1cccnc1)C(=O)C1COc2ccccc2O1 (stereo not given),-0.562
11,Cc1ccccc1NS(=O)(=O)c1cc(C(=O)NCCSC2CCCCC2)ccc1C,-0.0988
12,COc1ccccc1CNC(=O)C1CC(c2ccccc2[N+](=O)[O-])=NO1 (stereo not given),-0.25
13,c1ccc(CSc2nnnn2-c2cccc3ccccc23)nc1,-0.387
14,CCc1ccc(NC(=S)NC2CC3CCCC(C2)N3Cc2cccs2)cc1 (stereo not given),-0.108
15,COc1cccc(-c2nnc(SCC(=O)Nc3cc(C)on3)n2C)c1,-0.206
16,COc1ccc(CNc2cc(C)ccc2C)c(OC)c1OC,-0.333
17,Cc1ccccc1Nc1nc(-c2sc(NC(=O)c3ccccc3)nc2C)cs1,-0.0216
18,COc1cc(NC(=O)c2cccs2)c(C(=O)OCC(=O)c2cc(C)n(-c3ccccc3)c2C)cc1OC,-0.278
19,CC1CCCCC1NC(=O)C1CCN(S(=O)(=O)c2cccc3nsnc23)CC1 (stereo not given),-0.0938
20,C=CCNC(=O)c1onc(CSc2cccc(Cl)c2)c1C(=O)O,-0.371
21,Cc1c(C(=O)OC(C)C)nnn1-c1nonc1N,-0.266
22,CCOc1ccc(/C=C2/C(=O)N(c3ccc(OC)cc3)C(=S)N2CC(=O)OC)cc1OCC,0.273

row,Structure (SMILES),z-score
1,Oc1ccc2ccc3cccc[n+]3c2c1,active: -3.28
2,CCOc1cc(NC(=S)NCCCN(C)C)c(OCC)cc1NC(=O)c1cccs1,-0.195
3,CCOc1ccc(CN(C)CC(=O)c2c(N)n(Cc3ccccc3)c(=O)n(CC)c2=O)cc1OC,1.15
4,Cc1ccnc(NC(=O)C2COc3ccccc3O2)c1 (stereo not given),0.344
5,COc1cc(Cl)c(S(=O)(=O)NCc2ccccn2)cc1Cl,0.238
6,CCOC(=O)c1c(C)nc2ccccc2c1-c1ccccc1,-1.86
7,N#CCSc1nccc(-c2cc(Cl)sc2Cl)n1,-0.121
8,COc1ccc(C2CC(c3cccs3)=NN2S(=O)(=O)c2ccc(C)cc2)cc1 (stereo not given),-0.319
9,COCCNC(=O)c1ccc(CN2CCOCC2)cc1,0.145
10,COc1ccc(S(=O)(=O)N2CCCC(C(=O)NCc3ccncc3)C2)cc1Cl (stereo not given),-0.47
11,COc1cccc(NC(=S)N2CCN(c3ccccn3)CC2)c1,-0.0488
12,CCCCN(C(=O)CSc1nnc2ccccn12)c1c(N)n(Cc2ccccc2)c(=O)[nH]c1=O,0.133
13,CCC1(C)Cc2c(sc3nnn(CC(=O)Nc4ccc(Cl)cc4)c(=O)c23)CO1 (stereo not given),-0.349
14,O=C(Nc1ccc(S(=O)(=O)NCc2ccccc2)cc1)c1ccccc1[N+](=O)[O-],-0.102
15,O=C(COc1ccc(Cl)cc1)NCc1nnc(SCC(=O)c2ccccc2)o1,-0.197
16,CC1CCN(C(=O)CN(c2ccc(Cl)c(C(F)(F)F)c2)S(C)(=O)=O)CC1,0.0312
17,O=C(COC(=O)Cc1cccs1)Nc1ccccc1F,0.319
18,NC(=O)C1CCN(C(=O)CSc2nc3c(c(-c4ccccc4)n2)CCCC3)CC1,0.11
19,O=C(CN(Cc1ccc2c(c1)OCO2)C(=O)c1cnsn1)NC1CCCC1,-0.186
20,C/C(=N\NC(=O)c1csc2ccccc12)c1ccc(O)cc1,-0.0787
21,CC(C)(C)C1CCc2onc(C(=O)Nc3cnn(Cc4ccc(F)cc4)c3)c2C1 (stereo not given),0.916
22,CCOC(=O)CN1CC23C=CC(O2)C(C(=O)Nc2ccc(F)c(C)c2)C3C1=O (stereo not given),-0.226

row,Structure (SMILES),z-score
1,Cc1occc1-c1n[nH]c(=S)n1CC(C)C,0.307
2,Cc1cc2nc(N)sc2cc1[N+](=O)[O-],0.711
3,CCCn1c2ccc(/C(C)=N\O)cc2c2cc(/C(C)=N/O)ccc21,-0.225
4,CCCCNC(=S)NCCN1CCCCC1,0.407
5,Cc1cc(C)c2c(N)c(C(=O)c3cccc(Cl)c3)sc2n1,-0.231
6,CCn1c(CNC(C)=O)nnc1SCC(=O)c1ccc(Br)cc1,-0.393
7,CCOCC(=O)Nc1cc([N+](=O)[O-])ccc1C,-0.688
8,Cc1cc(N2CCOCC2)ncc1[N+](=O)[O-],0.108
9,COc1ccc(Cn2c(CCC(=O)Nc3ccc(C)cc3)nc3cccnc32)cc1,-0.111
10,Cc1ccc(C)c(NC(CC(=O)c2ccccc2)C(=O)OCC(=O)c2cccs2)c1 (stereo not given),-0.244
11,O=C(Oc1ccc(Br)cc1C(=O)/C=C/c1ccccc1F)c1ccco1,-0.35
12,O=C(COc1ccc(Br)cc1)Nc1cc(S(=O)(=O)N2CCCCC2)ccc1N1CCCCC1,-0.105
13,CCOc1cc(CNC2CCCC2)cc(Cl)c1OCc1ccc(F)cc1,1.69
14,C/C=C/c1ccc(Oc2nnnn2-c2ccc(C(=O)O)cc2)c(OC)c1,-0.254
15,COc1ccccc1/C=C/C=N/N1CCN(Cc2ccc(Cl)cc2)CC1,-0.494
16,C=CCn1c(O)c(N=NC(=O)CNC(=O)c2ccco2)c2ccccc21,-0.207
17,Cc1cc(C(=O)Cn2nnc3ccccc3c2=O)c(C)n1-c1ccccc1F,-0.445
18,CC(=O)Nc1ccc(C(=O)NNC(=O)c2cccs2)cc1,0.0116
19,Clc1ccc(Nc2ccc(-n3ccnc3)nn2)cc1Cl,-0.25
20,CC1(C)CC(=S)Nc2ccccc2S1,active: 7.97
21,CCC(C)(C)NC(=O)CN(C(=O)c1snc(C(N)=O)c1N)c1ccc(OC)c(OC)c1,-0.0928
22,Cc1cc(OCCNCCO)cc(C)c1Cl,-0.221

row,Structure (SMILES),z-score
1,O=C(CSc1nnc(NC2CCCCC2)s1)Nc1ccc(N2CCOCC2)cc1,0.103
2,C=CCn1c(=N)c(C(=O)NCCCOC)cc2c(=O)n3cc(C)ccc3nc21,-0.239
3,C=CCN1C(=O)C(Cc2ccc(OCC)cc2)SC1=Nc1ccc(C(=O)O)cc1 (stereo not given),0.222
4,CC(=O)NC1C(Oc2cccc(C)c2)OC2COC(c3ccco3)OC2C1O (stereo not given),-0.195
5,CC(C(=O)N1CC2(C)CC1CC(C)(C)C2)N1C(=O)c2ccccc2C1=O (stereo not given),0.1
6,O=C(Nc1ccc2c(c1)OCCO2)C1CCN(S(=O)(=O)c2ccc(Br)s2)CC1,1.13
7,COC(=O)Cn1ncn2cccc2c1=O,0.0705
8,COc1ccc(/C=N/NC(=O)Nc2cccc3nsnc23)c(OC)c1,-0.131
9,CC(=O)C1=C(NC(=O)c2ccc(F)cc2)CC2C1C2(C)C (stereo not given),0.743
10,Cc1ccc(NC(=S)N=Nc2c(O)n(C)c3ccc(S(=O)(=O)N4CCOCC4)cc23)cc1,active: 3.93
11,Cc1cccc(OCCCN2CCCCCC2)c1,1.74
12,Cc1cccc(Oc2coc3cc(OC(=O)c4cccs4)ccc3c2=O)c1,-0.0252
13,O=C(NC(=S)Nc1cc(C(F)(F)F)ccc1N1CCOCC1)c1ccc(-c2cccc(Cl)c2)o1,-0.143
14,NC(=O)c1csc(-c2ccncc2)n1,0.00251
15,Cc1ccc(S(=O)(=O)NNC(=O)c2ccc(O)cc2)cc1,-0.0144
16,O=C(CCCNS(=O)(=O)c1cccc2nsnc12)NCCc1ccccc1,-0.465
17,CN(CC(CC(=O)Nc1nncs1)c1ccccc1)S(=O)(=O)c1ccc(Br)cc1 (stereo not given),-0.149
18,CCn1cc(C(=O)O)c(=O)c2cc(F)c(N3CCN(S(=O)(=O)c4ccc(Br)cc4)CC3)cc21,-0.406
19,CCOc1ccc(C(=O)NC(=S)Nc2cccc(NC(=O)c3ccco3)c2)cc1[N+](=O)[O-],-0.139
20,O=C(C1CCN(C2CC(=O)N(Cc3ccccc3)C2=O)CC1)N1CCCCCC1 (stereo not given),-0.456
21,COc1ccc(C2=NOC(COC(=O)c3ccc4ccccc4n3)C2)cc1 (stereo not given),-0.0811
22,O=C(CCCc1nc(-c2ccc(Cl)cc2)no1)N1CCOCC1,active: 3.9

row,Structure (SMILES),z-score
1,CC(=O)NC(Cc1ccccc1)C(=O)OCC(=O)c1ccc(Cl)cc1 (stereo not given),-0.205
2,COc1ccccc1N(CC(=O)Nc1ccc(S(=O)(=O)N2CCCCC2)cc1)S(C)(=O)=O,-0.0266
3,CCCCC(=O)Nc1ccc(C(N)=O)cc1,-0.235
4,COc1ccccc1NC(=O)CSc1nnc(CNC(=O)COc2ccc(Cl)cc2)o1,-0.884
5,N#CC(C#N)=Cc1ccc(OC(=O)c2ccccn2)cc1,-0.325
6,O=C(c1cccc(S(=O)(=O)NCCOc2ccccc2)c1)N1CCN(c2ncccn2)CC1,0.21
7,CCOCCOC(=O)CCSc1n[nH]c(=O)[nH]c1=O,0.0131
8,Cc1ccc(CN(C(=O)c2csnn2)C(C(=O)NC2CCCC2)c2ccc(C)o2)cc1 (stereo not given),-1.08
9,Cc1ccc(CSC2=NCCN2C(=O)c2ccco2)cc1,-0.483
10,N#CC1=C(N)SC(N)=C(C#N)C1c1cccc(O)c1,-0.387
11,O=C(Nc1c(C(=O)O)[nH]c2ccccc12)NC1CCCCC1,0.458
12,O=C(CN1C(=O)CSC1=O)Nc1ccc2c(c1)OCCO2,0.229
13,CC(C)OC(=O)c1ccc(OC(=O)c2cccnc2)cc1,-0.0201
14,O=C1/C(=C/c2cccs2)SC(=S)N1c1ccccc1,-0.00319
15,O=C1CCC(=O)N1OCCCOc1ccc(Br)cc1Cl,0.401
16,Cn1c(C(=O)N2CCN(Cc3ccc4c(c3)OCO4)CC2)cc2sccc21,-0.409
17,O=C(COC(=O)c1cc(S(=O)(=O)N2CCOCC2)c(Cl)cc1Cl)Nc1ncc(C(F)(F)F)cc1Cl,-0.154
18,Cc1cc(=O)n2nc(N3CCC(C(=O)N4CCN(Cc5ccccc5)CC4)CC3)sc2n1,0.376
19,Cc1ccc(CNC(=O)NC2CCCCC2)cc1,0.118
20,O=C(O)c1cccc(N2C(=O)c3cccc(Oc4ccc(Cl)cc4)c3C2=O)c1,-1.41
21,CCCc1cc(-c2n[nH]c(C)c2-c2ccc(C(=O)OCC)o2)c(O)cc1O,0.632
22,CCOc1ccccc1Oc1coc2cc(O)ccc2c1=O,-0.924
